The results in this text go back to the supplement of paper PMC10670038.

Several values for one entry are separate records, joined by “and”; a condition that tells them apart may be missing. Equal values may be shown once. Where a name gives a salt, the structure may show the parent alone. ± gives the standard deviation of the averaged measurements. In all, about 2,000 compounds were measured (“relative cell viability vs DMSO, compound alone”: median about 1.1, lowest 2% from about 0.29 on). The list shows a part of the results.

The assay deals with TE10. As to the kind of experiment: relative cell viability vs DMSO, compound alone (fraction); TE10 is an esophageal squamous carcinoma line; higher = less cytotoxic. Conditions: 2 µM; 48 h. The protocol:
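TE10 ESCC cells (1,000/well, 384-well plates) were treated with Selleck bioactive library compounds at 2 uM alone for 48 h. Viability was read by CellTiter-Glo and expressed relative to DMSO wells. Two technical replicates (A, B).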
`O=C(N/N=C/c1cc(O)c(O)cc1O)c1cc2ccccc2cc1O` [Dyngo-4a] displayed a relative cell viability of 0.909 ± 0.21.
On to `Clc1ccc(NN=C(c2ccccc2)c2ccccn2)nc1`, for which the relative cell viability is 0.617 ± 0.047.
The compound `C[N+]1(C)[C@@H]2C[C@@H](OC(=O)C(O)(c3cccs3)c3cccs3)C[C@H]1[C@@H]1O[C@@H]12` [Tiotropium Bromide hydrate] displayed a relative cell viability of 0.893 ± 0.034.
The compound `C[N+]1(C)[C@@H]2CC[C@H]1C[C@@H](OC(=O)C(O)c1ccccc1)C2` (stereo not given in full) [Homatropine Methylbromide] displayed a relative cell viability of 1.15 ± 0.048.
Then `COC(=O)C1=C(C)NC(C)=C(C(=O)OCCN2CCN(C(c3ccccc3)c3ccccc3)CC2)C1c1cccc([N+](=O)[O-])c1` (stereo not given) [Manidipine], with 0.884 ± 0.083; and `COC(=O)C1=C(C)NC(C)=C(C(=O)OCCN2CCN(C(c3ccccc3)c3ccccc3)CC2)C1c1cccc([N+](=O)[O-])c1` (stereo not given) [Manidipine 2HCl], with 1.109 ± 0.0084.
Then `CC(C)N(C[C@H]1O[C@@H](n2cnc3c(N)ncnc32)[C@H](O)[C@@H]1O)[C@H]1C[C@@H](CCc2nc3cc(C(C)(C)C)ccc3[nH]2)C1`, with 1.02 ± 0.1.
Then `COC(c1ccccc1)(c1ccccc1)[C@H](Oc1nc(C)cc(C)n1)C(=O)O` [Ambrisentan], with 1.02 ± 0.04.
Turning to `COc1ccc([C@@H]2CC(=O)c3c(O)cc(O[C@@H]4O[C@H](CO[C@@H]5O[C@@H](C)[C@H](O)[C@@H](O)[C@H]5O)[C@@H](O)[C@H](O)[C@H]4O)cc3O2)cc1O` [Hesperidin], the relative cell viability was 1.02 ± 0.015.
`O=c1cc(N2CCOCC2)oc2c(-c3cccc4c3sc3ccccc34)cccc12` returned a relative cell viability of 1.07 ± 0.046.
Then `CC(C)(C(=O)O)c1ccc(C(O)CCCN2CCC(C(O)(c3ccccc3)c3ccccc3)CC2)cc1` (stereo not given) [Fexofenadine HCl], with 1.08 ± 0.038; and `Cc1cc(C(C)(C)C)c(O)c(C)c1CC1=NCCN1` [Oxymetazoline hydrochloride], with 1.15 ± 0.069.
`Cc1ccc(-c2csc(NC(=O)c3ccccc3)n2)c(C)c1` had a relative cell viability of 1.15 ± 0.044.
Then `O=C[C@H](O)[C@@H](O)[C@H](O)CO` [Xylose], with 1.09 ± 0.049.
Then `CC(=O)O[C@]1(C(C)=O)CC[C@H]2[C@@H]3C[C@H](C)C4=CC(=O)C=C[C@]4(C)[C@@]3(F)[C@@H](O)C[C@@]21C` [Fluorometholone Acetate], with 0.914 ± 0.099; and `O=C(O)c1cccnc1Nc1cccc(C(F)(F)F)c1` [Niflumic acid], with 1.03 ± 0.044; and `Cc1oncc1C(=O)Nc1ccc(C(F)(F)F)cc1` [Leflunomide], with 1.01 ± 0.021.
Regarding `CC1CC(OC(=O)C(O)c2ccccc2)CC(C)(C)C1` (stereo not given) [Cyclandelate], the relative cell viability came to 1.059 ± 0.0051.
`CCOC(=O)[C@H](CCc1ccccc1)N[C@@H](C)C(=O)N1Cc2ccccc2C[C@H]1C(=O)O` [Quinapril HCl] gave a relative cell viability of 1.01 ± 0.053.
Then `NC1(C(=O)N[C@@H](CCO)c2ccc(Cl)cc2)CCN(c2ncnc3[nH]ccc23)CC1`, with 0.821 ± 0.07; and `CC(CCc1ccccc1)NCC(O)c1ccc(O)c(C(N)=O)c1` (stereo not given) [Labetalol HCl], with 1.08 ± 0.012; and `Cc1cn([C@H]2O[C@@H](CO)[C@H](O)[C@H]2F)c(=O)[nH]c1=O` [Clevudine], with 0.979 ± 0.045.
Then `Cc1cc(NC(=O)Nc2ccc(N(C)C)cc2)c2cc(F)cc(F)c2n1`, with 1.04 ± 0.034; and `Cc1onc(-c2c(Cl)cccc2Cl)c1C(=O)N[C@@H]1C(=O)N2[C@@H]1SC(C)(C)[C@@H]2C(=O)O` [Dicloxacillin Sodium], with 0.942 ± 0.14.
Then `Cn1cc(-c2ccc3ncc(Cc4ccc5ncccc5c4)n3n2)cn1`, with 1.13 ± 0.055.
`CC1C(=O)OC2C(O)C34C5CC(C(C)(C)C)C36C(OC(=O)C6O)OC4(C(=O)O5)C12O` (stereo not given) [Ginkgolide B] displayed a relative cell viability of 1.19 ± 0.045.
Compound `CN(C)/N=N/c1[nH]cnc1C(N)=O` [Dacarbazine] had a relative cell viability of 1.17 ± 0.036.
Then `CC(C)OC(=O)[C@H](C)N[P@](=O)(OC[C@H]1O[C@@H](n2ccc(=O)[nH]c2=O)[C@](C)(F)[C@@H]1O)Oc1ccccc1` [Sofosbuvir (PSI-7977, GS-7977)], with 1.09 ± 0.097.
Then `Nc1nc2c(ncn2[C@@H]2O[C@H](CO)[C@@H](O)[C@H]2O)c(=O)[nH]1` [Guanosine], with 1.06 ± 0.032; and `CC1(C)S[C@@H]2[C@H](NC(=O)[C@H](NC(=O)N3CCNC3=O)c3ccccc3)C(=O)N2[C@H]1C(=O)O` [Azlocillin sodium salt], with 1.09 ± 0.026.
Then `O=C1[C@H](Cc2ccc(O)cc2)N2C(=O)CCN(C(=O)NCc3ccccc3)[C@H]2CN1Cc1cccc2ccccc12`, with 0.723 ± 0.061; and `CCn1c2ccccc2c2cc(Nc3ccnc(NCCCN4CCOCC4)n3)ccc21`, with 1.2 ± 0.076.
With `CNC(=O)c1cccc(-c2ccc3c(N4CCOC[C@@H]4C)nc(N4CCOC[C@@H]4C)nc3n2)c1`, the relative cell viability came to 0.528 ± 0.03.
Then `C=CCNC(N)=S` [Allylthiourea], with 1.17 ± 0.032; and `CN(C)CCOC(C)(c1ccccc1)c1ccccn1` (stereo not given) [Doxylamine Succinate], with 1.14 ± 0.021; and `COc1cccc(-c2cc(=O)c3ccccc3o2)c1N`, with 1.01 ± 0.071.
Then `CC(C)(C#N)c1cc(Cn2cncn2)cc(C(C)(C)C#N)c1` [Anastrozole], with 1.12 ± 0.061.
Then `COc1cc2nccc(Oc3ccc(NC(=O)Nc4cc(C)on4)c(Cl)c3)c2cc1OC` [Tivozanib (AV-951)], with 1.18 ± 0.074; and `C[C@@H](O)[C@H]1C(=O)N2C(C(=O)O)=C(S[C@@H]3CN[C@H](CNS(N)(=O)=O)C3)[C@H](C)[C@H]12` [Doripenem Hydrate], with 1.12 ± 0.095; and `O=C(Nc1ccccc1C(=O)NC1CCCCNC1=O)c1cc2ccccc2s1` (stereo not given), with 0.924 ± 0.17.
Turning to `Nc1ccn([C@H]2CC[C@@H](CO)O2)c(=O)n1` [Zalcitabine], the relative cell viability turned out to be 1.04 ± 0.029.
`CCc1cc(Nc2nccc(-c3c(-c4ccc(OC)c(C(=O)Nc5c(F)cccc5F)c4)nc4ccccn34)n2)c(OC)cc1N1CCC(N2CCN(S(C)(=O)=O)CC2)CC1` gave a relative cell viability of 1.2 ± 0.095.
Then `CC(S)C(=O)NCC(=O)O` (stereo not given) [Tiopronin], with 1.16 ± 0.015; and `CNCc1ccc(-c2cc(-c3nc(-c4ccc(S(=O)(=O)C(C)C)cc4)cnc3N)on2)cc1`, with 0.881 ± 0.054.
Then `CN1CCN(CCCN2c3ccccc3Sc3ccc(C(F)(F)F)cc32)CC1` [Trifluoperazine 2HCl], with 1.02 ± 0.028.
Then `O=C(NCc1ccccc1)c1csc(Nc2ccncn2)n1` [Thiazovivin], with 1.23 ± 0.048; and `CNC[C@H](O)c1ccc(O)c(O)c1` [Epinephrine Bitartrate], with 1.12 ± 0.13; and `CNC[C@H](O)c1ccc(O)c(O)c1` [Epinephrine HCl], with 1.115 ± 0.005.
Consider `CN(CC(=O)N(Cc1ccc(C2CCCCC2)cc1)c1ccc(C(=O)O)cc1)S(=O)(=O)c1c(F)c(F)c(F)c(F)c1F`, for which the relative cell viability was determined as 1.01 ± 0.013.
For `OC(CNCC(O)C1CCc2cc(F)ccc2O1)C1CCc2cc(F)ccc2O1` (stereo not given) [Nebivolol], the relative cell viability stood at 0.9529 ± 0.0084.
Regarding `O=C(CCc1ccc(O)cc1)c1c(O)cc(O)cc1O` [Phloretin], the relative cell viability was 1.202 ± 0.001.
Then `CC[C@H](C)[C@H](N)C1=N[C@H](C(=O)N[C@@H](CC(C)C)C(=O)N[C@H](CCC(=O)O)C(=O)N[C@H](C(=O)N[C@H]2CCCCNC(=O)[C@H](CC(N)=O)NC(=O)[C@@H](CC(=O)O)NC(=O)[C@H](Cc3cnc[nH]3)NC(=O)[C@@H](Cc3ccccc3)NC(=O)[C@H]([C@@H](C)CC)NC(=O)[C@@H](CCCN)NC2=O)[C@@H](C)CC)CS1` [Bacitracin], with 1.14 ± 0.048.
`O=C(O)c1cc(/N=N/c2ccc(O)c(C(=O)O)c2)ccc1O` [Olsalazine Sodium] gave a relative cell viability of 1.12 ± 0.12.
Then `O=C(Nc1ccccc1-c1cn2c(CN3CCNCC3)csc2n1)c1cnc2ccccc2n1`, with 1.18 ± 0.1.
Then `CNC(=O)c1cc(Oc2ccc(NC(=O)Nc3ccc(Cl)c(C(F)(F)F)c3)c(F)c2)ccn1` [Regorafenib (BAY 73-4506)], with 1.15 ± 0.043.
`CC(C)(C)NCC(O)COc1cccc2c1CCC(=O)N2` (stereo not given) [Carteolol HCl] showed a relative cell viability of 1.09 ± 0.15.
Then `CN(C)CC(=O)Nc1ccc2[nH]c(=O)c3ccccc3c2c1`, with 1.11 and 1.05.
Then `CC(C)C[C@H](NC(=O)[C@@H](NC(=O)c1cccc(-c2ccccc2)n1)[C@@H](C)O)B(O)O`, with 0.0932 ± 0.003; and `OC[C@H]1O[C@H](O[C@]2(CCl)O[C@H](CCl)[C@@H](O)[C@@H]2O)[C@H](O)[C@@H](O)[C@H]1Cl` [Sucralose], with 1.107 ± 0.0098.
Then `CNC(=O)c1cc(Oc2ccc(NC(=O)Nc3cc(C(C)(C)C)nn3-c3ccc4ncccc4c3)c(F)c2)ccn1` [DCC-2036 (Rebastinib)], with 1.05 ± 0.093; and `COc1ccc2c(c1)c(CC(=O)O)c(C)n2C(=O)c1ccc(Cl)cc1` [Indomethacin], with 1.08 ± 0.039; and `CN1CCC(=C2c3ccccc3CCc3cccnc32)CC1` [Azatadine dimaleate], with 1.07 ± 0.013.
As to `Nc1nc2ccc(OC(F)(F)F)cc2s1` [Riluzole], the relative cell viability came out at 1.14 ± 0.075.
Then `COc1cc(C=CC(=O)N2CCC=CC2=O)cc(OC)c1OC` [Piperlongumine], with 0.948 ± 0.024; and `O=C(C1CCCCC1)N1CC(=O)N2CCc3ccccc3C2C1` (stereo not given) [Praziquantel], with 0.9499 ± 0.0021; and `C[C@@H]1CCO[C@H]2Cn3cc(C(=O)NCc4ccc(F)cc4F)c(=O)c(O)c3C(=O)N12`, with 1.16 ± 0.064.
Then `C[C@]1(O)C[C@@H](c2nc(-c3ccc4ccc(-c5ccccc5)nc4c3)c3c(N)nccn32)C1` [OSI-906 (Linsitinib)], with 1.202 ± 0.0014; and `C[C@H]1O[C@@H](O[C@H]2[C@@H](O)C[C@H](O[C@H]3[C@@H](O)C[C@H](O[C@H]4CC[C@@]5(C)[C@H](CC[C@@H]6[C@@H]5C[C@@H](O)[C@]5(C)[C@@H](C7=CC(=O)OC7)CC[C@]65O)C4)O[C@@H]3C)O[C@@H]2C)C[C@H](O)[C@@H]1O` [Digoxin], with 0.603 ± 0.013.
Then `Cc1c(OCC(F)(F)F)ccnc1C[S@@+]([O-])c1nc2ccccc2[nH]1` [Dexlansoprazole], with 1.06 ± 0.061.
Compound `CC[C@H]1OC(=O)[C@H](C)[C@@H](O[C@H]2C[C@@](C)(OC)[C@@H](O)[C@H](C)O2)[C@H](C)[C@@H](O[C@@H]2O[C@H](C)C[C@H](N(C)C)[C@H]2O)[C@](C)(O)C[C@@H](C)C(=O)[C@H](C)[C@H]2OC(=O)O[C@@]21C` [Erythromycin Cyclocarbonate] had a relative cell viability of 1.12 ± 0.073.
